Source: the RNAGym collection of RNA variant scans (doi:10.1093/nar/gkz1192)
Read counts are not given, so values of variants with three or more changes are uncertain.

B1: CPEB3 Ribozyme (parent)
chain: UAACAGGGGGCCACAGCAGAAGCGUUCACGUCGCAGCCCCUGUCAGAUUCUGGUGAAUCUGCGAAUUCUGCUGUAUAUCUC

Variants of: B1
Experiment: self-cleavage, relative activity (ratio to wild type); higher = more cleavage; in vitro, sequencing
How it was run: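 Libraries of CPEB3 self-cleaving ribozyme mutants came from rounds of error-prone PCR and carried barcodes, which DNA sequencing matched to variants. In vitro transcription used T7 RNA polymerase at 37°C for 5 hours, with a further 15 min in DNase I before EDTA stopped the reaction; the ribozymes cleaved during both steps. The RNA was reverse transcribed with template switching and sequenced on Illumina. Relative activity is the cleaved/total read fraction of a variant divided by that of the unmutated ribozyme, averaged over three batches with at least 5 reads.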

Row | Variant | self-cleavage
1 | A3G G8U U41C U58A U80A | 0.07
2 | A3G G10A C27U | 0.36
3 | A3G C23U A28G G63A U80C | 0.34
4 | A3G C12U C79U | 1.25
5 | A3G G8A U54C | 0.42
6 | A3G G33U A35U A65G | 0.26
7 | A3G G7A A13U A20G A45U U69A | 0.08
8 | A3G C34U A77U | 0.39
9 | A3G G9A A77G | 0.52
10 | A3G C12A A18G A20G U78A U80C | 0.3
11 | A3G G7A U48C A64G | 0.07
12 | A3G G19A A35G U80C | 0.71
13 | A3G G8U U67A U69G U72A | 0.06
14 | A3G G10A G30A C32U A64G U74A | 0.3
15 | A3G C14U C62G U76C | 0.3
16 | A3G G30A U43C U48A | 0.05
17 | A3G C17G A35U U78C | 0.08
18 | A3G G33A U74C | 0.74
19 | A3G G16A A57G A64U | 0.17
20 | A3G G22C A47U U72C | 0.22
21 | A3G G6A A20G A45U G70A U80C | 0.07
22 | A3G G10C A45G G46U A56G U58C U60C | 0.14
23 | A3G C12U A15U U54C U80C | 1.27
24 | A3G G52C U80A | 1.09

Row | Variant | self-cleavage
25 | A3G G8U A47G C50U A56G | 0.47
26 | A3G C23U U48C | 0.41
27 | A3G C29U G55A A77U | 0.27
28 | A3G C14A U41A A57G U80A | 0.06
29 | A3G G9A C12A A20U G22A U78C | 0.07
30 | A3G G9C U31A | 0.51
31 | A3G G19A U41A | 0.43
32 | A3G G19A U41C | 0.32
33 | A3G G7A U78C | 0.31
34 | A3G G9U A15U U60A | 0.18
35 | A3G G30A C40A | 0.12
36 | A3G C23U U43A A57G | 0.11
37 | A3G C32U U49A U58C | 0.15
38 | A3G G10A U49C U54A U58G | 0.1
39 | A3G G8A A56U U80C | 0.09
40 | A3G G46A U69G | 0.16
41 | A3G G10A G19U A20G U43C | 0.08
42 | A3G G7C A13U C37A G63A | 0.35
43 | A3G C12A A13G U54A | 1.07
44 | A3G C14G U49C G61A A77C U78C | 0.11
45 | A3G G8A A15G U25C C37G U74A | 0.06
46 | A3G G6A G22C G55C U78C U80C | 0.05
47 | A3G C34G G55U | 0.47
48 | A3G G19U U25C U60C G61A | 0.11

Row | Variant | self-cleavage
49 | A3G G19A C34U U66A | 0.05
50 | A3G C39U A57G | 0.5
51 | A3G G10A C27U U60C | 0.22
52 | A3G G6A U41A U60C | 0.06
53 | A3G G10A A35G A56G U72G | 0.31
54 | A3G G9A U26C A45G | 0.35
55 | A3G C29G U54C U67A U78A | 0.03
56 | A3G G7C G8A A64G G70A | 0.18
57 | A3G C40A U48C U67C | 0.21
58 | A3G G30A G36U C40U A57G U74A | 0.21
59 | A3G G33A C34G U69A | 0.56
60 | A3G G7C A28G U41A | 0.09
61 | A3G G6A U26C A35G A45G A64G | 0.06
62 | A3G G10C A15U U48C | 0.35
63 | A3G G7C U43A U69C | 0.07
64 | A3G G10A A18U U26C U41A U51C A64G | 0.05
65 | A3G G8A A57G C62U U69C U78C | 0.27
66 | A3G G6U A18U A21G U43C | 0.11
67 | A3G G8A A21G A35G | 0.11
68 | A3G C12G A13G G24A | 0.28
69 | A3G C11G U41A U60A | 0.42
70 | A3G G9C U49C | 0.46
71 | A3G C12A C23G A64G | 0.33
72 | A3G G8A G10A U54A U60A U67C | 0.07

Row | Variant | self-cleavage
73 | A3G C12A A13U C38G U49A A64U | 0.09
74 | A3G C32G U49A A57G C59A | 0.25
75 | A3G G30A U80C | 0.59
76 | A3G G7C A20U U26C C40A U51A | 0.05
77 | A3G G7C A15U A45U A77G | 0.1
78 | A3G G36U A57G U72A | 0.2
79 | A3G G22A U58A U80A | 0.39
80 | A3G C29U G46U C62U A64G | 0.07
81 | A3G G10A A35U G55U | 0.22
82 | A3G G9U A18G A21G A35G | 0.15
83 | A3G G46C A57U | 0.17
84 | A3G G16U A21G C38U A57G U60A G70A | 0.05
85 | A3G C27U U60C | 0.29
86 | A3G G16U A28G U49C | 0.07
87 | A3G C12U U26C U31A G61A | 0.15
88 | A3G G30A A35U | 0.09
89 | A3G C11G G24A | 0.11
90 | A3G G6A A13C C23G U69C U78A | 0.11
91 | A3G G10A A20G U49A A57G | 0.07
92 | A3G G7U U25G A28U U60C C62U | 0.07
93 | A3G C32A A45G | 0.2
94 | A3G C17U U25C A47G | 0.43
95 | A3G G9U U41C U66A | 0.09
96 | A3G G24A U26C G70A | 0.23

Row | Variant | self-cleavage
97 | A3G G33A A47U A75C | 0.39
98 | A3G C12U U58A A64G | 0.46
99 | A3G C12U U31C U49C U69C | 0.23
100 | A3G G6U A77G | 0.51
101 | A3G C12U A45G A57G U67C | 0.44
102 | A3G G7C G33U | 0.06
103 | A3G G46U U80G | 0.37
104 | A3G C12G A21G A35U U41C G53C G73A | 0.78
105 | A3G G7A A21G U31C U43A A64G U74A | 0.02
106 | A3G C40U U49C | 0.71
107 | A3G G9U U31A U48A A57G | 0.08
108 | A3G C11U A13U U31A U41C U49C | 0.33
109 | A3G G6U A13U A21G U43C U60C | 0.35
110 | A3G C12G C17G A20G G22U A28G | 0.09
111 | A3G C40U U72A | 0.57
112 | A3G G7U A15G U25C U48A G63U C81U | 0.05
113 | A3G G10A U26C A57G | 0.64
114 | A3G C38U U54C U78C C79U | 0.89
115 | A3G C23U U72C U80C | 0.18
116 | A3G G10A A13U C17A A56U U67C | 0.06
117 | A3G C17G U54C | 0.17
118 | A3G C27A U51A U76A | 0.19
119 | A3G C12A C23G C32U | 0.32
120 | A3G G33A G46U U69C U72C | 0.19

Row | Variant | self-cleavage
121 | A3G C17A U25C A28U U31A A35G A45G | 0.06
122 | A3G G9U U49C | 0.27
123 | A3G C32U A35U C39U U48C U69A | 0.09
124 | A3G G8A C34U U58C C81U | 0.07
125 | A3G C17U A35G | 1.19
126 | A3G G7A U25C G61A | 0.05
127 | A3G C14U A21G U26A A57U U80A | 0.95
128 | A3G G10A A21G C27U A28U U69A | 0.06
129 | A3G G30A U54G A65G A77G | 0.04
130 | A3G C62A G63C U72A | 0
131 | A3G C12U A28G U31C U69C U76A | 0.36
132 | A3G C32U U80A | 0.7
133 | A3G G10A U48C U49C U72C | 0.07
134 | A3G G9A A47G U58C A65G | 0.12
135 | A3G C14A A15U U67C | 0.29
136 | A3G G6A C32U U72A U80A | 0.1
137 | A3G G10U G36A U41C U69A A77C U80C | 0.04
138 | A3G C39U A47G U80C | 0.54
139 | A3G G30A A35U U43C U48C U54A A57G | 0.19
140 | A3G G30C A47C | 0.32
141 | A3G G9A U41A U72A | 0.08
142 | A3G C34G U49C U60C U76C | 0.07
143 | A3G G9U A13U A15U A20G | 0.16
144 | A3G G24C A57G G63A U74C | 0.17

Row | Variant | self-cleavage
145 | A3G C29U A56G | 0.14
146 | A3G C14G U72G A75C U78C | 1.13
147 | A3G C12U A13G A21G A64G A75U | 0.11
148 | A3G G7C A18G A28U C32A U43C U54C | 0.09
149 | A3G G8C A21G U26C C79G | 0.06
150 | A3G G33A U43C A75G | 0.18
151 | A3G G8C U26A G53U G55A U80C | 0.64
152 | A3G G52A U66C U72C | 0.51
153 | A3G G6A A15U C38A A47G | 0.12
154 | A3G C12U A21G U26C A64U | 0.12
155 | A3G C11G U48G U80C | 0.13
156 | A3G G9U A18G G30A | 0.49
157 | A3G C12A A15C U25C A56U U67A U80C | 0.06
158 | A3G G8A U25C U48A G53C U60A | 0.28
159 | A3G C11G U25C C44U U54A A77C U78C | 0.08
160 | A3G G8U G9U A18U U26C U67C | 0.21
161 | A3G G9A A21G C32U U72A | 0.05
162 | A3G G10A A18G A35G U60C A77U | 0.24
163 | A3G G6U C50A | 0.34
164 | A3G G19C A75U | 0.61
165 | A3G C27U U31A U54C U60C A65G | 0.16
166 | A3G G22C A47G | 0.38
167 | A3G G22C A47U | 0.38
